Structures are written as SMILES. About 14,000 (4.5%) of roughly 310,000 compounds showed an effect of 50% or more. Effects have a minus sign here. Some of the results follow.

The source of these data is paper PMC4336329 (PLoS ONE, 2015).
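Further: peak tail current of the secondary pulse compared with the same well before compound.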

Sequence of human ether-à-go-go-related gene (hERG) potassium channel (Q12809 whole entry, looked up): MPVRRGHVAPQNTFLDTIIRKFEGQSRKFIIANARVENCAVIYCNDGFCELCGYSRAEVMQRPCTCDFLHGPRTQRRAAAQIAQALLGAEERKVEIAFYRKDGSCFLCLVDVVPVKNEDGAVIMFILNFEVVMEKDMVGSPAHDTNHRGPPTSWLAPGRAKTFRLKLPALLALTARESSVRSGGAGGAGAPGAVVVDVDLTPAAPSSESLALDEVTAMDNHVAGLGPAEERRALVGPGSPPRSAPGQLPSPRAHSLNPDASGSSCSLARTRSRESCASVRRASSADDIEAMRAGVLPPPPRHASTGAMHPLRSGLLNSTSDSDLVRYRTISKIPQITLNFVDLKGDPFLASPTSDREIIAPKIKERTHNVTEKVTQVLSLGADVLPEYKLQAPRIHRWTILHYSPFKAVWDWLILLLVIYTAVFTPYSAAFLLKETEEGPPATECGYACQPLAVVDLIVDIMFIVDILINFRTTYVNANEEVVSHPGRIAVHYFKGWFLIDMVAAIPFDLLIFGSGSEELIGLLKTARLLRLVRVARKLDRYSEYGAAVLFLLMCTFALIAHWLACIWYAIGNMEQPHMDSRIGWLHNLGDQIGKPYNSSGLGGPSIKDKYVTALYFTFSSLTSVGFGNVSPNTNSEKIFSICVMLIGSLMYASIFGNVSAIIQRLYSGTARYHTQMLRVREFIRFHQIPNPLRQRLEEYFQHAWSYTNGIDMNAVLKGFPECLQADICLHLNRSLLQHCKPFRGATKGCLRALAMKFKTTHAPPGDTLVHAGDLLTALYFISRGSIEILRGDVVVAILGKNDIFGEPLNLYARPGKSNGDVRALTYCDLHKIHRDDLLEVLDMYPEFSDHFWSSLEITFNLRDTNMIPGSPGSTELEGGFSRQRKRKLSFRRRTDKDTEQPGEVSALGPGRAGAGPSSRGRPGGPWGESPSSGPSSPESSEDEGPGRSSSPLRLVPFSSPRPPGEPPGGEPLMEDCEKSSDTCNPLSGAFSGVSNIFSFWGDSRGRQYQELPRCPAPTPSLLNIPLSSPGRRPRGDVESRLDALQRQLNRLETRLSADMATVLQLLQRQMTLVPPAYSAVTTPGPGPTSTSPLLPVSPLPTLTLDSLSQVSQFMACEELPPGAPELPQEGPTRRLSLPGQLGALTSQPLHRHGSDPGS

The assay has as its target human ether-à-go-go-related gene (hERG) potassium channel (human, UniProt Q12809). The experiment in a line: primary screen, population patch clamp on CHO cells stably expressing hERG.
On to `c1ccc(OCc2nn3c(-c4ccco4)nnc3s2)cc1`, for which the “hERG current change (%, negative = inhibition) at 10uM” value is -41.1%. The figure for `COc1ccc2[nH]cc(C(=O)CN3CCCC(C)(C)C3)c2c1` is -16.6%.

Turning to `Cc1cc(C)nc(/N=C2\NC(=O)CC(C(=O)O)N2c2ccc(Oc3ccccc3)cc2)n1` (stereo not shown), the “hERG current change (%, negative = inhibition) at 10uM” value came to 2.33%. As to `CC(=O)/C(C[N+]1(C)CCCCC1)=N\O.[I-]`, the “hERG current change (%, negative = inhibition) at 10uM” value came to 16.4%. The figure for `CCOc1ccc(C(=O)NC(C(=O)NCCc2ccc(OC(F)F)cc2)C(C)C)cc1` (stereo not shown) is -62.6%. The figure for `COc1ccc(Nc2nc(C)c3ccccc3n2)cc1` is -17.4%; for `COc1ccc(NCc2ccc([N+](=O)[O-])s2)c(OC)c1` it is -24.4%. For the compound `CNC(=O)c1ncoc1-c1ccc(Cl)cc1`, the “hERG current change (%, negative = inhibition) at 10uM” value was -1.31%.

For the compound `CN(C(=O)c1ccc(NC(=O)Cc2ccc(NC(=O)C3CCN(C(=O)C4CCCC4)CC3)cc2)cc1)C1CC1`, the “hERG current change (%, negative = inhibition) at 10uM” value stood at 22.8%. With `CCOc1ccc(N(C(=O)/C=C/C(=O)Nc2cc(C)on2)C(C(=O)NC2CCCC2)c2ccccc2C)cc1` (stereo not shown), the “hERG current change (%, negative = inhibition) at 10uM” value was -6.96%. The figure for `CCC1(c2ccccc2)C(=O)NCNC1=O` is 1.93%; for `Cc1cc(OCC(=O)NCCCN(C)C)cc(C)c1Br` it is 0.957%; for `Cn1c(=O)c2c(ncn2CC(COCc2ccc(Cl)cc2)OCc2ccc(Cl)cc2)n(C)c1=O` (stereo not shown) it is -51.1%. Then `O=C(COC(=O)c1ccc2ncsc2c1)NC(=O)NCc1ccccc1`, with 1.12%.

Regarding `O=C1C2ON(c3ccccc3)C(c3ccncc3)C2C(=O)N1c1ccc(N2CCOCC2)cc1` (stereo not shown), the “hERG current change (%, negative = inhibition) at 10uM” value is given as 12.4%. With `COc1cc(C(=O)N2CCN(C(=O)c3ccco3)CC2)cc(OC)c1OC`, the “hERG current change (%, negative = inhibition) at 10uM” value is reported as -2.68%.

As to `c1ccc(-c2ccccc2OCCCCn2ccnc2)cc1`, the “hERG current change (%, negative = inhibition) at 10uM” value was -26.4%. Turning to `CCCC(=O)c1c[nH]c(C(=O)NCCCN2CCOCC2)c1`, the “hERG current change (%, negative = inhibition) at 10uM” value stood at 11.3%. As for `Cn1c(SCC(=O)N2CCCc3ccccc32)nnc1-c1ccccc1`, the “hERG current change (%, negative = inhibition) at 10uM” value is -16.8%.

As for `COc1cccc([C@@H]2CC=C(C(=O)O)[C@H](c3cccc(Cl)c3)N2S(=O)(=O)c2ccc(C)cc2)c1`, the “hERG current change (%, negative = inhibition) at 10uM” value is 4.75%. Take `O=C(CSCc1ccc(F)cc1)N1CCOCC1`: the “hERG current change (%, negative = inhibition) at 10uM” value stood at 4.35%. For the compound `Cc1cccn2c(=O)c3cc(C(=O)NCc4ccco4)c(=N)n(C(C)C)c3nc12`, the “hERG current change (%, negative = inhibition) at 10uM” value is listed as -77.6%. For the compound `CN(C(=O)COC(=O)/C=C/c1ccc(C(F)(F)F)cc1)c1c(N)n(Cc2ccccc2)c(=O)[nH]c1=O`, the “hERG current change (%, negative = inhibition) at 10uM” value is -0.744%. Take `Cc1occc1-c1nnc(SCC(=O)NCCc2ccccc2)n1Cc1ccccc1`: the “hERG current change (%, negative = inhibition) at 10uM” value was -81.1%.

Consider `NC(=O)C1CCN(C(=O)CCSCc2ccccc2)CC1`, for which the “hERG current change (%, negative = inhibition) at 10uM” value is given as -1.36%. Turning to `Cc1cccc(C)c1NC(=O)CC(C)c1ccccc1` (stereo not shown), the “hERG current change (%, negative = inhibition) at 10uM” value came out at 6.52%. `COC(=O)c1[nH]c2ccccc2c1NC(=O)CN1CCN(c2cccc(Cl)c2)CC1`: the “hERG current change (%, negative = inhibition) at 10uM” value is 6.84%. The figure for `O=C(NCCCN1CCCC1=O)c1ccc(OCc2ccccc2)cc1` is -12.9%. On to `Cc1ccc(S(=O)(=O)N2CCOCC2)cc1C(=O)NCc1ccccn1`, for which the “hERG current change (%, negative = inhibition) at 10uM” value is given as -0.76%. For the compound `Cc1ccc(-n2c3c(cc(C(=O)NC4CCSC4=O)c2=O)C(=O)CC(C)(C)C3)cc1` (stereo not shown), the “hERG current change (%, negative = inhibition) at 10uM” value is reported as -10.2%. The figure for `CC1CCCC(NC(=O)c2ccc3snnc3c2)C1C` (stereo not shown) is 11%; for `COC(=O)CNC(c1ccccc1Cl)c1cc(Br)ccc1NS(=O)(=O)c1ccc(C)cc1` (stereo not shown) it is 1.92%. With `CCOc1ccc(OCCOC(=O)C2CCN(S(=O)(=O)c3ccc(C)c(C)c3)CC2)cc1`, the “hERG current change (%, negative = inhibition) at 10uM” value is recorded as -22.4%. The figure for `COc1ccc2c(c1)Cc1sc(NC(=O)c3cccnc3)nc1-2` is 13.2%. For `COc1cc([N+](=O)[O-])ccc1NC(=O)COC(=O)c1n[nH]c2ccccc12`, the “hERG current change (%, negative = inhibition) at 10uM” value is given as 13.8%. Turning to `O=C(COC(=O)[C@@H]1CCCN1S(=O)(=O)c1ccccc1F)c1ccccc1`, the “hERG current change (%, negative = inhibition) at 10uM” value came out at 3.14%.

As for `Cc1cc(C(=O)COC(=O)c2ccc(NC(=O)CC#N)cc2)c(C)n1CCc1ccc(F)cc1`, the “hERG current change (%, negative = inhibition) at 10uM” value was -15.7%. Take `CCCC[N+](CC#Cc1ccccc1)(CCCC)CCCS(=O)(=O)[O-]`: the “hERG current change (%, negative = inhibition) at 10uM” value came out at 25.2%.

As to `Cc1cccc(NC(=O)C(C)N2C(=O)C3C4CC(C(Br)C4Br)C3C2=O)c1` (stereo not shown), the “hERG current change (%, negative = inhibition) at 10uM” value is recorded as 3.14%. In the case of `CSCCC(NC(N)=O)C(=O)Nc1cccc(C#N)c1` (stereo not shown), the “hERG current change (%, negative = inhibition) at 10uM” value stood at 8.79%. Regarding `Cc1cc(C(=O)N2CCCCCC2)cs1`, the “hERG current change (%, negative = inhibition) at 10uM” value was 7.5%. Take `O=C(COC(=O)c1cccs1)Nc1ccccc1`: the “hERG current change (%, negative = inhibition) at 10uM” value was 2.54%. Then `O=C(NCCc1ccccc1)c1noc2c1CCCCC2`, with -2.58%; and `COCCCNC(=S)NNC(=O)c1ccc(C(C)(C)C)cc1`, with 2.06%. Then `CC1CCN(c2nc3ccccc3nc2C(C#N)C(=O)OC2CCCCC2)CC1` (stereo not shown), with 11.3%; and `Cc1cc(=O)oc2cc(OCC(=O)NC3CCCCC3)ccc12`, with -60.7%; and `O=C(O)CC/C(=N\Nc1ccc(Cl)cc1)c1cccs1`, with 14.9%. Turning to `O=C(Nc1ccccc1)Nc1ccc(Nc2ccccc2)cc1`, the “hERG current change (%, negative = inhibition) at 10uM” value is listed as 17.5%. For `O=C(c1cc(C2CC2)nc2ccc(Br)cc12)N1N=C(C(F)F)CC1(O)C(F)F` (stereo not shown), the “hERG current change (%, negative = inhibition) at 10uM” value is listed as -7.89%. The figure for `Cc1ccc(-c2nn(-c3ccccc3)cc2C(=O)OCC(=O)Nc2ncc(Cl)cc2Cl)cc1` is 2.82%. Take `Cc1cc(C)nc(N/N=C/c2ccccc2OCc2ccccc2)n1`: the “hERG current change (%, negative = inhibition) at 10uM” value is 4.6%.

In the case of `NC(=O)c1ccc(Nc2ccc3nonc3c2[N+](=O)[O-])cc1`, the “hERG current change (%, negative = inhibition) at 10uM” value came out at 4.69%. `Cc1ccc(N2CCN(CC3CC=CCC3)CC2)cc1` (stereo not shown): the “hERG current change (%, negative = inhibition) at 10uM” value is -27.4%.

Consider `COC(=O)CC(=O)CSc1nc2c(cc1C#N)CCC2`, for which the “hERG current change (%, negative = inhibition) at 10uM” value is 13%.

Consider `Cc1cccc(N2C(=O)CC(N(C(=O)c3ccco3)c3cccc(C)c3)C2=O)c1` (stereo not shown), for which the “hERG current change (%, negative = inhibition) at 10uM” value turned out to be 4.2%.

For the compound `CCOC(=O)/C(N=Nc1ccc(Cl)cc1)=C(/O)c1ccc([N+](=O)[O-])cc1`, the “hERG current change (%, negative = inhibition) at 10uM” value is 1.17%.

In the case of `CCN(CC)C(=O)c1[nH]cnc1C(=O)Nc1ccc(Cl)cc1`, the “hERG current change (%, negative = inhibition) at 10uM” value is on record as 9.48%. With `O=C(CSc1nnnn1-c1ccccc1)Nc1nc(-c2ccccc2)ns1`, the “hERG current change (%, negative = inhibition) at 10uM” value was found to be 19.9%. Regarding `CSc1cccc(NC(=O)/C=C/c2ccc(Cl)cc2)c1`, the “hERG current change (%, negative = inhibition) at 10uM” value is -4.08%. Take `CC(C)(C)C1CCc2onc(C(=O)NC3CCCC3)c2C1` (stereo not shown): the “hERG current change (%, negative = inhibition) at 10uM” value was -42.9%. For `O=C(OCC(=O)c1ccc(Cl)s1)c1ccc2ccccc2n1`, the “hERG current change (%, negative = inhibition) at 10uM” value was found to be 3.46%.

In the case of `COc1ccc(-n2c(=O)c3c4c(sc3n3cnnc23)CC(C)CC4)cc1` (stereo not shown), the “hERG current change (%, negative = inhibition) at 10uM” value is on record as 1.32%.

For `CC(C)(C)OC(=O)CNC(=O)c1nc[nH]c1C(=O)NCc1ccc(CNC(=O)OC(C)(C)C)cc1`, the “hERG current change (%, negative = inhibition) at 10uM” value is listed as -16.6%. The figure for `CC(=O)Nc1ccc(S(=O)(=O)N[C@H](C(=O)O)C(C)C)cc1` is 3.17%; for `CN(C(=O)c1ccno1)c1nnc(-c2cnccn2)s1` it is 6.99%; for `S=c1[nH]nc(-c2ccc(Br)cc2)n1-c1ccc2c(c1)OCCO2` it is 9.06%. `COc1ccccc1NC(=O)CCSc1nnc(-c2ccco2)o1`: the “hERG current change (%, negative = inhibition) at 10uM” value turned out to be 5.01%. `CC1CCN(c2ccccc2NC(=O)c2cc([N+](=O)[O-])ccc2N2CCOCC2)CC1`: the “hERG current change (%, negative = inhibition) at 10uM” value was -2.63%. With `O=C(CSc1ccc2nnc(-c3ccc(Cl)cc3)n2n1)N1CCc2ccccc21`, the “hERG current change (%, negative = inhibition) at 10uM” value is reported as -3.33%. The figure for `CS(=O)(=O)Nc1ccc(C(=O)NC2CCCCC2)cc1` is -0.845%; for `COC(=O)CCC(=O)OC1(C)C(=O)C2=CN(CCCCO)C(c3ccc(OC)cc3)=CC2=C(Br)C1=O` (stereo not shown) it is 6.94%. `O=c1[nH]c2ccccc2nc1/C=C/c1ccccc1`: the “hERG current change (%, negative = inhibition) at 10uM” value was 18.6%. Take `Cc1oc2c(c(C)cc3oc(=O)c(CC(=O)NCCCO)c(C)c32)c1C`: the “hERG current change (%, negative = inhibition) at 10uM” value turned out to be 24%. Take `O=C(Cn1nnc2ccccc2c1=O)NC1CCCc2ccccc21` (stereo not shown): the “hERG current change (%, negative = inhibition) at 10uM” value was -0.676%. Then `Cc1ccc(NC(=O)COC(=O)CCn2c(C)csc2=O)c([N+](=O)[O-])c1`, with -16.9%; and `COc1ccc(/C=N/NC(=O)CCc2n[nH]c(=O)[nH]c2=O)cc1OC`, with 0.501%; and `CC(C)(C)NS(=O)(=O)c1ccc(CCC(=O)N2CCOCC2)cc1`, with -20%. For `Cc1c(C)c2c(OCC(=O)N3CCC[C@H]3C(=O)O)cc3c(c2oc1=O)CCC(C)(C)O3`, the “hERG current change (%, negative = inhibition) at 10uM” value was determined as 3.8%. In the case of `Cc1ccc(NC(=S)NNC(=O)c2ccccc2O)c(C)c1`, the “hERG current change (%, negative = inhibition) at 10uM” value is on record as 15.6%. The figure for `COCCn1c(C)cc(C(=O)COC(=O)CCS(=O)(=O)c2ccc(C)cc2)c1C` is -24.9%; for `CCOc1c(Br)cc(CNC2CCCCCCC2)cc1OC.Cl` it is -8.71%. Then `CCC1CCc2sc(C(=O)N3CCN(c4ccccn4)CC3)cc2C1` (stereo not shown), with -11.5%. As for `O=C(Nc1ccc2c(c1)OCCO2)C1CCN(S(=O)(=O)Cc2ccccc2)CC1`, the “hERG current change (%, negative = inhibition) at 10uM” value is 12.8%. Then `COc1cccc(N2CCN(C(=O)CSc3ccc(F)cc3)CC2)c1`, with -38.5%.

With `Nc1ccc(C(=O)Oc2ccc([N+](=O)[O-])cc2)cc1`, the “hERG current change (%, negative = inhibition) at 10uM” value came to 10.9%.

With `O=C(NCc1cccnc1)C1CCCN(S(=O)(=O)c2ccccc2)C1` (stereo not shown), the “hERG current change (%, negative = inhibition) at 10uM” value stood at 9.79%.

In the case of `Cc1ccc(C2=NN3C(C2)c2ccccc2OC32C(=O)Nc3ccccc32)cc1` (stereo not shown), the “hERG current change (%, negative = inhibition) at 10uM” value came to 12.2%.

Take `O=C1CSC(c2ccncc2)N1Cc1ccccc1` (stereo not shown): the “hERG current change (%, negative = inhibition) at 10uM” value came to 17%.
